From the supplement of paper PMC3334620
Whole data set: some 33,000 sequences, median “E-score (-0.5 to 0.5)” near -0.032, cut for the highest 2% near 0.36. This is one part of the list.

molecular target: T1, Sko1 (UniProt Q02100); assay: PBM E-score (8-mer binding enrichment) (E-score (-0.5 to 0.5)); higher = stronger / more preferred TF binding; most listed sequences are background and not binding sites; settings: protein concentration: 200 nM; construct: GST-full length
T1 sequence: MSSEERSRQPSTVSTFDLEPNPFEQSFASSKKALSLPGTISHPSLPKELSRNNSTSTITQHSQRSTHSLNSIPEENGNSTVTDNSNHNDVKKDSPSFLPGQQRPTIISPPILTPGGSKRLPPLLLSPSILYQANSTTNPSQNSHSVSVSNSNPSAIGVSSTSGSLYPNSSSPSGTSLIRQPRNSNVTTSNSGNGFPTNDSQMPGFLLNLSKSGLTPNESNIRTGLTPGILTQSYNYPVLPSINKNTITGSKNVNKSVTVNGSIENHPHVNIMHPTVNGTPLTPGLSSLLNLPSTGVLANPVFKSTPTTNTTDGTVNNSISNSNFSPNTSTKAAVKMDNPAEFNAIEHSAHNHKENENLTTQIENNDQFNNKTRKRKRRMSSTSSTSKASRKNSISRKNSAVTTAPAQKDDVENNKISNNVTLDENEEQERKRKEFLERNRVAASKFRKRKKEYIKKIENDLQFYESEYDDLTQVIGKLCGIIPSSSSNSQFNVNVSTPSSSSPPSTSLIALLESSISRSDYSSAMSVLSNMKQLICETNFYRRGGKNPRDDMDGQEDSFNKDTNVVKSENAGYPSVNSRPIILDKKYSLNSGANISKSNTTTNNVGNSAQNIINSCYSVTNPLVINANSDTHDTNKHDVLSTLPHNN
In short: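 Masliner-normalised scans of fluorescent anti-GST signal were the basis for scoring. That signal came from GST-tagged yeast transcription factors applied at about 100-200 nM to double-stranded universal all-10-mer Agilent arrays on fresh or once-stripped slides. Each ungapped eight-base word, pooled with its reverse complement, received an E-score from the Universal PBM Analysis Suite.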

Row | Sequence | PBM E-score
1 | GGACATGA | -0.0394
2 | ATCCTAAA | -0.0168
3 | GCAAGTCA | 0.00337
4 | ACTGACAA | 0.16
5 | ACAACTAA | 0.161
6 | ACCTAATA | 0.254
7 | CAGGCTGC | -0.2
8 | GTATTAAA | 0.273
9 | CCTAACAA | 0.142
10 | CATCGCTC | -0.245
11 | TAACGGTA | 0.0311
12 | TACTTTGA | 0.116
13 | GGGTCCGA | -0.168
14 | CCTGATAA | 0.0531
15 | CCCCTAAA | -0.29
16 | GGATCGCA | -0.0421
17 | CCAGGAGA | -0.229
18 | CATGGAGA | 0.0682
19 | AATGCGGG | 0.00457
20 | CAGACATC | -0.0501
21 | ATGGAAGC | 0.0161
22 | ATTAGGAG | 0.137
23 | ACAGTGAT | 0.131
24 | CCGATAAC | 0.0795
25 | GTTTTGAA | 0.111

Row | Sequence | PBM E-score
26 | GGCGGTAA | -0.137
27 | AAGGTTCC | -0.175
28 | CCAAGTGA | -0.0287
29 | ATCGCACC | -0.0981
30 | GGCGTACC | -0.0685
31 | CATAGATA | 0.218
32 | TTCGCGAA | 0.222
33 | CGGAAAGC | -0.0178
34 | ATCTGCCC | -0.184
35 | AAACTTAG | -0.0514
36 | TCGATACA | 0.177
37 | ACTAGCAC | -0.0326
38 | CCGGTGAC | 0.147
39 | CTCCGATA | -0.256
40 | AGTTGTAA | 0.0597
41 | ATTTTATA | 0.223
42 | AGCAATGG | -0.217
43 | GCTTCTAC | -0.08
44 | GACCAGTC | -0.25
45 | ATGGTGAG | 0.0843
46 | AGGACAGA | -0.196
47 | CTTGAATA | 0.0831
48 | CCTCCCAA | -0.196
49 | GGAGGAGA | -0.261
50 | CAAATTGC | 0.0668

Row | Sequence | PBM E-score
51 | ACGCTGCT | -0.116
52 | GAACTAGA | 0.0254
53 | ATATGCTA | 0.066
54 | GCAAATAA | 0.129
55 | CGTCTCTA | 0.00942
56 | AACCTTCG | 0.0377
57 | AACCGTCA | 0.0476
58 | CTGGCGAC | -0.284
59 | TTGTCAAA | 0.0922
60 | GTACTCAC | -0.00043
61 | AAGTAAAG | -0.152
62 | TAGGTAGA | -0.006
63 | CCTTCAAA | -0.0268
64 | ATTCCCAG | -0.072
65 | CTGAGATA | 0.0643
66 | ACTGAGCT | -0.115
67 | AAAGACTT | 0.0404
68 | GTCAATGA | 0.181
69 | AAAATGCG | 0.178
70 | CAAGGCGC | -0.374
71 | GGGAAAGA | -0.119
72 | GGGTGCAA | -0.181
73 | TAAAGATA | 0.147
74 | CTTCACTA | 0.0319
75 | TAGTGCCA | -0.107

Row | Sequence | PBM E-score
76 | ACGCTAGA | -0.104
77 | ACCGAGGA | -0.0663
78 | AGTATGTA | 0.0841
79 | ATCAAGTA | 0.0281
80 | TAGTAAAA | 0.197
81 | ACAATCTG | 0.00099
82 | CCATACGA | 0.14
83 | AAGCAGTC | -0.178
84 | TATCCTAA | 0.0605
85 | ACACCGGC | -0.183
86 | CGACTGTA | -0.104
87 | GAATTGCA | -0.04
88 | CCAGCTCC | -0.39
89 | ATACCTAC | 0.126
90 | ACTCGAAC | 0.111
91 | GATGACCC | -0.0957
92 | AGACTGCG | -0.017
93 | CTATGGAG | -0.156
94 | TATTCTGA | -0.00141
95 | AAGTTTAC | 0.251
96 | ATAGTTTA | 0.0815
97 | CTAGACGA | -0.0315
98 | GCTTGAGA | -0.0643
99 | AGTACGGC | -0.101
100 | AGACTGGG | -0.231

Row | Sequence | PBM E-score
101 | ACACCGGG | -0.289
102 | ATATCAAG | 0.177
103 | ATAAAGCA | -0.0086
104 | AGATGTAA | 0.256
105 | CCCCTGAG | -0.276
106 | CATACAGG | -0.0277
107 | ACTGAGGG | -0.146
108 | CTATCATC | 0.0137
109 | CGGTCCAA | -0.253
110 | AGGAACTA | 0.00161
111 | ATAGGAAG | -0.108
112 | ATGCCAGG | -0.34
113 | CGTGATCA | 0.241
114 | AATCGTTA | 0.23
115 | TCCACGGA | 0.0142
116 | ATATGCCC | -0.186
117 | GGCGCTGA | -0.119
118 | ATCATGGC | -0.00549
119 | ACATGTCG | 0.0769
120 | GTTTTCAA | 0.182
121 | GGAGCATA | -0.0066
122 | ACTTGGTC | -0.0114
123 | ACTATGGG | -0.125
124 | CCGCCACG | 0.00095
125 | CACCGTTC | -0.142

Row | Sequence | PBM E-score
126 | AGTCGTCC | -0.114
127 | AAGCATAC | 0.0976
128 | ACTGCCAC | -0.156
129 | CCAACCGG | -0.161
130 | AGTTCCTC | -0.183
131 | TGGACCAA | -0.0668
132 | ATAGACAC | 0.0427
133 | GATTCGAA | 0.0666
134 | GCCGATCA | -0.0181
135 | ACTAATTA | 0.334
136 | AGATACAC | 0.124
137 | ACCGGGCT | -0.237
138 | AGATTGCT | -0.111
139 | CATCACAC | 0.245
140 | CACCATCC | -0.195
141 | GAACAATC | 0.132
142 | AAATCAGC | 0.103
143 | AGTGATGC | 0.146
144 | GTTGAATA | 0.129
145 | CATGCAGG | -0.178
146 | CTTCGCCC | -0.244
147 | ATATCCAC | -0.0811
148 | AAATGAGC | 0.0483
149 | ATTCGGCG | -0.244
150 | AGGCGTAT | 0.2

Row | Sequence | PBM E-score
151 | CGTACCTC | 0.0538
152 | GGCGAACA | -0.186
153 | CAACGCAA | 0.195
154 | CCCGGCGG | -0.326
155 | CGTCGTCC | -0.0443
156 | GCTAACAC | 0.094
157 | ACATGGGG | -0.1
158 | CCCATAAG | -0.23
159 | AATGGCTA | 0.0457
160 | ACCCTAGG | -0.112
161 | AGCCTCCT | -0.223
162 | GGGTATGA | 0.0602
163 | CCAAAAGA | 0.161
164 | CACCGACG | 0.217
165 | GTTAGCAA | 0.176
166 | AGGCGAGC | -0.219
167 | TCGTGAGA | -0.0852
168 | AACCAGGC | -0.0446
169 | CTCGCACC | -0.104
170 | AAAGGCGC | -0.116
171 | TCAAGTCA | 0.0132
172 | GTCCGGCA | -0.136
